# The RNAGym collection of RNA variant scans (doi:10.1073/pnas.2313332121)
# Variants at the background level are over-represented here.
# B1: TPR 5TU (parent)
# chain: GGAUCUUCUCGAUCUAACAAAAAAGACAAAUCUGCCACAAAGCUUGAGAGCAUCUUCGGAUGCAGAGGCGGCAGCCUUCGGUGGCGCGAUAGCGCCAACGUUCUCAACUAUGACACGCAAAACGCGUGCUCCGUUGAAUGGAGUUUAUCAUG
# Variants of: B1
# Assay: polymerase ribozyme fitness, log enrichment relative to wild type (log ratio); higher = more active; in vitro selection for triplet polymerase activity
# Method in brief: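 Frozen incubation at −7 °C formed the core of a single, triplicate in vitro selection round applied to PCR-built, transcribed mutant libraries of each subunit of a heterodimeric triplet polymerase ribozyme. Extended constructs were gel-excised, captured with streptavidin beads and amplified by RT-PCR, and input and output libraries were Illumina-sequenced with a filter of ≥10 input reads and ≥1 read per output. Fitness is the logarithm of genotype enrichment relative to wild-type enrichment, with inverse-variance-weighted replicate averaging, and the logarithm is base 2.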
row,Variant,polymerase ribozyme fitness (log ratio)
1,C38A A60U A73G A89U U104C U109C C149A,≤ -4.2
2,C35U G74A G86A C96G C114A A150C,≤ -4.2
3,A37C A49G C87U A115C,-3.32
4,C36A U82A U90G A98C,≤ -4.2
5,C36A G74A A107C C116A,≤ -4.2
6,A37G A39C C87A C116U G136A,≤ -4.2
7,C36U G81C G86U G88U A147G,≤ -4.2
8,C35U C72G C99A,≤ -4.2
9,C36G G50U G67C G74U G88U C114U,≤ -4.2
10,C36A U45A G92C,≤ -4.2
11,A37G G74C,≤ -4.2
12,C36A A73G C96U A121C C131U,≤ -4.2
13,C36U U53G U56A G80C C85A C129U G140C,≤ -4.2
14,C35U U61A C76A,≤ -4.2
15,C35U A47U U55A C87A G143A,≤ -4.2
16,C36U U44C C51U C79U C85G A98C C118U A147U,≤ -4.2
17,C36A A37C G84A C85G U101G,≤ -4.2
18,C35U U55A G84U A147C,-2.79
19,C36A C99A C114U U135G,≤ -4.2
20,C35U C36A C76U C85U C93U G141A,≤ -4.2
21,A37G C51U C72U C95A A138U G143U,≤ -4.2
22,C36U G65A G86A G88A C108G G124A C125U G141A,≤ -4.2
23,A37C A97U,-0.373
24,A37G A52C A66C A73C,≤ -4.2

row,Variant,polymerase ribozyme fitness (log ratio)
1,A37G U45G C57G C95U,-3.33
2,C38A U44G G81A C93U C114A G124U U134G,≤ -4.2
3,A37U G50A A64U G92A G128A,≤ -4.2
4,A37U G68A G92U U101A C103A U135G,≤ -4.2
5,C36G G86A G117U U130A G140A,≤ -4.2
6,C36A G80C A91C C125G G133C A150U,≤ -4.2
7,C35U A39C C57A A66U C123A G143U,≤ -4.2
8,C36G G59U C105G,≤ -4.2
9,C36A U90C A147U,≤ -4.2
10,C36U C87U C93G A98U A147U U148C,≤ -4.2
11,C36U U61G C93A C103A U109A U134A G136U,≤ -4.2
12,C38A C43U U56G C75G G88A A89C U111C G143U,≤ -4.2
13,A37C G70C C87U U127C,≤ -4.2
14,A37G G58A G92C G140U,≤ -4.2
15,C35G G70C U78C U102G C125A A138U,≤ -4.2
16,C35U G50C C76A A89G A91G U109A A137C G143U,≤ -4.2
17,C38A U55A G94U C99G,-3.88
18,C38A G48C G71U,≤ -4.2
19,A37U G94A,-1
20,A37C C95U G141C,-1.7
21,A37C G71U G86A A106U C132G U145G,≤ -4.2
22,A37U G80C G81C U102A A110U C118G A120U G133U,≤ -4.2
23,C35G C43U G81A A91G A115G C118G,≤ -4.2
24,A37G A52U G117U A121C A138G G141C,≤ -4.2

row,Variant,polymerase ribozyme fitness (log ratio)
1,C35G C85G U134A G136A,≤ -4.2
2,A37U A41G U45A C93U A119U,≤ -4.2
3,C38A G94A C123U,-0.611
4,A37U U53G G62A C95U,≤ -4.2
5,C35U A49U G74C G80U C103G,≤ -4.2
6,C36U A52U C75G G88C C105A C114G A115G,≤ -4.2
7,A37U A52G C76A C96U C131G,≤ -4.2
8,C35U U101G A110U A138G,≤ -4.2
9,C38A G84A U148G,≤ -4.2
10,C36U C76G A89U C96U,≤ -4.2
11,C35G A89U C93U C95U,≤ -4.2
12,A37G A60G G83C C96U G141U,-2.58
13,A37C C95G,-2.69
14,A37G C85U,-2.1
15,C36A C105U U127G,≤ -4.2
16,C35U A47C G83U A120U A137C,≤ -4.2
17,A37U U61A A89C C96A A98C U104A,≤ -4.2
18,C35U U53A U55A G83U U101A,≤ -4.2
19,A37C C72G G136U G141U U146G,≤ -4.2
20,C36G A40U U104A,≤ -4.2
21,C36U A39U G50C A52U A66G G92C,≤ -4.2
22,A37C A89C G140A U145G,≤ -4.2
23,C36A G59A U144G,-3.49
24,A37U A49G C76A U151A,≤ -4.2

row,Variant,polymerase ribozyme fitness (log ratio)
1,A37C A52U C96A,-2.87
2,A37U A39C C57A C93U A97U U104G C116A,≤ -4.2
3,C35U A89C C99G C132G G136U,≤ -4.2
4,C36U U56G C76G A106G C116U C129G A137C,≤ -4.2
5,A37U G94C A137C G141C,≤ -4.2
6,A37G C51U C72G,≤ -4.2
7,C36U G48C A91U G92A,≤ -4.2
8,A37G A40C A52C G92C,≤ -4.2
9,A37G G46U A52U C93A C96G G100U,≤ -4.2
10,A37C A60G C93U C96G A97G A107G,≤ -4.2
11,C36U U145A G152A,-3
12,C38A A52G A89C C96A A115C C116U U130A G140A U151G,≤ -4.2
13,A37U C85G C125U G141A,≤ -4.2
14,A37U G62C C96A U127G,≤ -4.2
15,C35G A60G C75U C87A G92U A121G A150G,≤ -4.2
16,C36U G58A C79U C123U G141C,≤ -4.2
17,A37G A66U C93G C118A G141A,≤ -4.2
18,C36A U55A U61A C79G G81C A137G,≤ -4.2
19,C36U A41G G84A C114U A115C G152A,≤ -4.2
20,C36G G94U C118G A147U,≤ -4.2
21,C38A C43G C54A A91G C96U A150U,≤ -4.2
22,A37C C57A C87A,≤ -4.2
23,A37C G50A A73G C93A A106G,≤ -4.2
24,C35G U55A G86A,≤ -4.2

row,Variant,polymerase ribozyme fitness (log ratio)
1,A37U C57A C63G C75A C108U A115C U130G,≤ -4.2
2,C35U A49C U56A G81U A89C C95U C118G,≤ -4.2
3,C36A U78G A89C U102G U111A,≤ -4.2
4,A37C A52C G81C A107C C132U,≤ -4.2
5,C36U C63U G84U C103U C105U A147G A150G,≤ -4.2
6,C35U G94A C108A A150U,≤ -4.2
7,A37C G88U U90A C105G A107U A113C A137U U139A G152U,≤ -4.2
8,A37C G62U G86U G100C A107G,≤ -4.2
9,C36U C95U,-1.98
10,C38A A47U G50C A91U,≤ -4.2
11,C36U G46C C85U G92A C99U,≤ -4.2
12,A37U C93A A97G C99A A120U,≤ -4.2
13,C36A U78A,≤ -4.2
14,C35G G62A G68A C69G G71C C72A A73G G74C A91C C114U C132U,≤ -4.2
15,A37C G50U G59U G86U,-2.65
16,A37G A66U C96A C103U,≤ -4.2
17,C36U A73U A138U G140C,≤ -4.2
18,C38A C54G C69G G70A A138G,≤ -4.2
19,C38A G42C U55G C69U U90G U146C,≤ -4.2
20,C36U U44A G46C C57A C87U U148G,≤ -4.2
21,C38A G86C,-3.27
22,C36A C79U,≤ -4.2
23,A37G U77C A91U,≤ -4.2
24,C35U A49C C79A C87A A119U,≤ -4.2

row,Variant,polymerase ribozyme fitness (log ratio)
1,C35U C75G C93U A115U A120U A122G,≤ -4.2
2,C35G G68C C125A,-4.18
3,C35U G88A,-4.1
4,C36G A37G G80A G86U C95A,≤ -4.2
5,C38G A66U G94A C108U,≤ -4.2
6,C38A C96U C118A A137C,≤ -4.2
7,C38G A64G G74A G94U A97U G100U,≤ -4.2
8,C36U C69G A89C A97C A122C G141U U151G,≤ -4.2
9,C35U G94U G128C,≤ -4.2
10,A37U A40C U61A C69U G92C U127C G128A,≤ -4.2
11,C36U G58U C69A U139A A142U,≤ -4.2
12,C38A A122U A137G G141U A142G,-3.83
13,A37G C96U C105G,-3.63
14,A37C C85U G88C A137U,≤ -4.2
15,C36U A64C G86C C105A C118U A119U,≤ -4.2
16,C35G U55A C95A U102G,≤ -4.2
17,C36A U56A,-3.62
18,C36U C54A G58A G70A G84A C95A A115U G143U,≤ -4.2
19,A37U U101G U134G G141A,-4.08
20,C36A C85U,-3.7
21,C36A C93U A98C,≤ -4.2
22,A37G A40U C54G A60G,-2.66
23,C38A A49G U56A A60G U90G C95G G112C A113G G117U C118U,≤ -4.2
24,C35U G140C,-4.13

row,Variant,polymerase ribozyme fitness (log ratio)
1,A37G G84A U101G A120G,-2.6
2,A37U G83U G140C,≤ -4.2
3,C38A A73G C79A C114G G124U G140U U148G,≤ -4.2
4,A37U C43U U45C C76G C96A C125G G133C G143A,≤ -4.2
5,C35U U61C C72A G141U,≤ -4.2
6,C36U U55A,-0.574
7,C38A U53C G67U C93G A106U C118A A120U,≤ -4.2
8,C36U C43U U56A C93A,≤ -4.2
9,A37G G81C G88C U127G G143A,≤ -4.2
10,A37U C75A C85U G112C G124C C132G A142G U145A,≤ -4.2
11,C35G G68U U148C,≤ -4.2
12,C36A C87G A107C,≤ -4.2
13,C35U U61A A66C C69U,≤ -4.2
14,C36A G46A C96U U148A,≤ -4.2
15,A37C A49C C54A U78G C93U G124A,≤ -4.2
16,C35U C99G A119C G141U,-1.83
17,A37U C54U C95G A137G U148G,≤ -4.2
18,C38G A52G A106G G140U,≤ -4.2
19,A37U G83C A91C A98G G124U,≤ -4.2
20,C36U G46U G86U C105A G124U,-3.12
21,C36G U56A G94U A97C A120U C125U,≤ -4.2
22,C35G A49G C85A G94C G100U C108A,≤ -4.2
23,C35G G88A C105G A138G,≤ -4.2
